In all, about 110,000 compounds were measured (“z-score”: median about -0.1, highest 2% from about 2 on). This is one part of the list. Active and inactive are the calls of the source.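 Rule for the calls: active = z-score in the third read window above 3 or below -3; inactive = the rest.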

This assay deals with Metabotropic glutamate receptor 8 (Rattus norvegicus) (UniProt P70579). Nature of the assay: rat mGluR8 modulators via GIRK flux, primary screen, cell-based, thallium flux, HTS (AID 488969). The note with it: HEK293 rat mGluR8, GIRK (G protein-gated inwardly rectifying potassium channel) thallium flux, FluoZin2; at 10 µM; stronger effect = higher value; submaximal glutamate (EC20) added with thallium.
Sequence of UniProt P70579 (P70579 whole entry, looked up): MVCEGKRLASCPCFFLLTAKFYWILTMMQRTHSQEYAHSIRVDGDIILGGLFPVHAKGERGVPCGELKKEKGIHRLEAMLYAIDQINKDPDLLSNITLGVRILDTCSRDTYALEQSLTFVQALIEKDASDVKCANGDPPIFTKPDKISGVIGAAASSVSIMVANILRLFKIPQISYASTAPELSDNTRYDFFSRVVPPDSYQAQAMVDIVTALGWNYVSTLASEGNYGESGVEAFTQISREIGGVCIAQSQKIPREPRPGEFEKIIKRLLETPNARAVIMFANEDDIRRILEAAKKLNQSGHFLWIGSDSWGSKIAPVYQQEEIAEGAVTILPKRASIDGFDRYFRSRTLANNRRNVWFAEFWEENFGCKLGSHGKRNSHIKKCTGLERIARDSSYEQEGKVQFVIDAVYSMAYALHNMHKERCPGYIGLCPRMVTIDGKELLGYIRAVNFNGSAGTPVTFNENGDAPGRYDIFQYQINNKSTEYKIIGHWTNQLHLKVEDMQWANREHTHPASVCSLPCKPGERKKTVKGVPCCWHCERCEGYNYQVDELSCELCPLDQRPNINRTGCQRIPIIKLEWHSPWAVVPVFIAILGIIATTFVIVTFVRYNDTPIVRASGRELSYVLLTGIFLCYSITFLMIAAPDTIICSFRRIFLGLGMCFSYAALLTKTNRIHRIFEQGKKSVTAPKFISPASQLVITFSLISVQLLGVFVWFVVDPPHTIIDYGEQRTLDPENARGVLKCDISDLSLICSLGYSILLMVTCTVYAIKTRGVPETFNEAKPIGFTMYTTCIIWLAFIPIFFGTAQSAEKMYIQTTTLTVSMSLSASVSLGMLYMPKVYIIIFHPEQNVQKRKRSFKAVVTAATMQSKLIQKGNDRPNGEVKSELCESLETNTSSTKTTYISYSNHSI
`COc1ccc(-c2csc(NC(=O)COC(=O)Cc3ccc(Cl)cc3Cl)n2)cc1` came in with a z-score of -0.0844.
Consider `CCC(C)[C@@H](N)C(=O)N/N=C/c1ccc2ncccc2c1` (some centres not stated), for which the z-score was -0.156.
Next, `Cc1cccc(NC(=O)C(c2cccc([N+](=O)[O-])c2)N2CCCCC2)c1` (configuration not stated): -0.091; `O=C(CN1C2=NCCN2c2ccccc21)c1ccc(Br)s1`: 0.52; `CC(C)N=C(Nc1ccc(Cl)cc1)c1cccnc1`: 0.0919.
Next, `COc1ccc(OC)c(CCNC(=O)Cn2sc3nc(C)cc(C)c3c2=O)c1`: 2.22; `CC(C)NC(=O)c1onc(CSc2ccc(F)c(F)c2)c1C(=O)O`: -1.59; `CC(C)c1ccc(S(=O)(=O)N2CCN(CCC(=O)Nc3ccc(N(C)C)cc3)CC2)cc1`: -0.439.
Take `Cc1cc(C)nc(SCC(=O)Nc2ccc(N3CCOCC3)c(Cl)c2)n1`: the z-score came to 0.243.
As for `CCc1ccc(OCC(=O)NCCOc2ccccc2)cc1`, the z-score worked out at 0.127.
Next, `CCCc1[nH]nc2c1C(c1cc(OC)cc(OC)c1)C(C#N)=C(N)O2` (configuration not stated): 0.365.
Next, `Cc1ccc(-n2cccc2/C=N/n2cnnc2)cc1Cl`: 0.0564; `O=C(CN1CCCC1)Nc1ccc(NC(=O)Nc2ccccc2)cc1`: -0.0128.
Molecule `COC(=O)c1ccc(OCC(O)CN2CCC(C)CC2)cc1` (configuration not stated) displayed a z-score of 0.401.
`CCCCn1nnnc1NCc1cccnc1` showed a z-score of -0.231.
As for `O=C(Nc1c(C(=O)Nc2ccccc2)cnn1-c1ccccc1)c1ccco1`, the z-score is -0.00305.
The value for `CCN(Cc1ccccc1)C(=O)C1CCN(CC2CC=CCC2)CC1` (configuration not stated) was -0.431; that for `CCn1c(SCc2ccc(Cl)c(Cl)c2)nnc1C(C)NC(=O)c1ccc(OC)cc1` (configuration not stated) was -0.249.
Next, `Cc1ccc(C(=O)/C=C/c2c(C)nn(-c3ccccc3)c2Cl)cc1`: -0.1; `Cc1cccc(NC(=S)Nc2ccc3cn[nH]c3c2)c1`: 0.1; `COc1ccc(C)cc1NCc1cc(=O)oc2cc(-c3ccccc3)c(O)cc12`: -0.102.
The value for `CCOC(=O)N1CCN(C(=O)COc2ccc(S(=O)(=O)NCc3ccccc3)cc2)CC1` was -0.288.
The molecule `c1ccc(-c2csc3ncnc(-n4cnc5ccccc54)c23)cc1` had a z-score of -0.602.
Molecule `COc1ccc(-c2noc(CN3C(=O)c4ccccc4C3=O)n2)cc1` yielded a z-score of -0.747.
Regarding `c1ccc(CCN2CN(CCCN3CCOCC3)c3nc4ccccc4n3C2)cc1`, the z-score is -0.246.
Next, `CCc1cccc(CC)c1-n1c(SCc2cc(=O)n3ccsc3n2)nnc1-c1cccnc1`: -0.388; `CCCCCOC(=O)CC(C(=O)OCCCCC)N1CCCCC1` (configuration not stated): -0.0432; `CCS(=O)(=O)c1ccc(-c2csc(-c3ccccc3)n2)c(Cl)c1Cl`: 0.0564.
Next, `Cc1cc(C)nc(SCc2nc(N)nc(-c3ccccc3O)n2)n1`: 0.373; `Cc1oc(-c2ccc(Cl)cc2)nc1CN1CCCC(C(=O)NCCCN2CCCC2=O)C1` (configuration not stated): -0.344; `CCOC(=O)c1c(CSC(=N)N)n(-c2ccc(C)cc2)c2cc(Br)c(OC(C)=O)cc12`: 1.29.
The value for `CN1CCc2nc(SCC(=O)Nc3ccc(OC(F)(F)F)cc3)c(C#N)c(-c3cccs3)c2C1` was 0.0639.
The molecule `Cc1c(NC(=O)c2cc3nc(-c4ccc(Br)cc4)cc(C(F)(F)F)n3n2)c(=O)n(-c2ccccc2)n1C` registered a z-score of -0.51.
Next, `O=C(Nc1ccc2ccccc2c1)/C(=C\c1ccc2c(c1)OCO2)NC(=O)c1ccco1`: -0.365.
The value for `Cc1ccc(C2Nc3ccccc3NC3=C2C(=O)OC(C)C3)cc1` (configuration not stated) was -0.18.
The molecule `Cc1ccccc1C(=O)N1CCN(c2ccc([N+](=O)[O-])c(NCc3cccnc3)c2)CC1` registered a z-score of -0.418.
`C=CCC(NC(C)c1ccccc1)c1ccco1` (configuration not stated) showed a z-score of 0.174.
The value for `CCC(=O)N1CCN(c2ccccc2NC(=O)Cc2ccc(Cl)cc2)CC1` was -1.15.
The value for `Cc1ccc(C2=NN(C)c3nc4ccccc4n3C2)cc1` was -0.484.
For the molecule `Cc1ccc2c(N)c(C#N)sc2n1`, the z-score is 0.0283.
For `CC1(C)C(=O)OC(c2cccn2-c2cccc([N+](=O)[O-])c2)C2(CCCCC2)C1=O` (configuration not stated), the z-score was -0.339.
Take `COc1ccc(OC)c(-c2cc(C3CCN(c4cc(Cl)nc(N)n4)CC3)[nH]n2)c1`: the z-score is -0.137.
The value for `Cc1ccsc1C(=O)Nc1ccc(C(=O)O)cc1` was -0.13; that for `O=C(CSc1ccccc1)N(c1ccc(Br)cc1)c1nccs1` was active: 9.08.
The value for `O=C(NCCN1C(=O)C2C3C=CC(C3)C2C1=O)NCc1ccccc1` (configuration not stated) was -0.251; that for `Cc1ccc(S(=O)(=O)N2CCN(CC(=O)NC(=O)NCc3ccccc3)CC2)cc1C` was -0.184; that for `O=[N+]([O-])c1cc(C2Nc3cccc4cccc(c34)N2)ccc1Cl` was -0.278.
The value for `Cc1csc(SCC(=O)NC(=O)NCc2ccccc2)n1` was 0.0694; that for `N#Cc1cnn2c(-c3ccccc3)ccnc12` was -0.389; that for `Cc1cc(C(F)F)n2ncc(C(=O)N3CCC(C(N)=O)CC3)c2n1` was -0.0129.
In turn, `COc1ccc(OCCn2cc(/C=N/NC(=O)c3ccncc3)c3ccccc32)cc1` had a z-score of -0.353.
Next, `Cc1ccc(NC(=O)CSc2nsc(SCC(=O)Nc3ccc(C)cc3C)c2C#N)c(C)c1`: -0.432; `CC(=O)OC1CSc2nc3ccccc3n2C1` (configuration not stated): -0.132.
With `CCOc1ccc(OCC)c(NC(=O)C2CCCN(S(=O)(=O)c3c(C)noc3C)C2)c1` (configuration not stated), the z-score is -0.458.
Next, `COC(Cc1n[nH]c(=S)n1-c1ccccc1)OC`: 0.0393; `CCOCC(=O)Nc1cc(C(=O)OC)ccc1C(=O)OC`: -0.075; `Cc1csc(=NC(=O)c2ccccc2)n1C`: -0.359.
Next, `COc1ccc(/C=C2\N=C(SC)N(C)C2=O)cc1`: -0.0452; `COc1cc(C(=O)OCC(=O)NCc2ccccc2)cc(NC(=O)c2ccco2)c1OC`: -0.957; `Cc1ccc(-n2c(SCC(=O)NCc3ccco3)nnc2-c2cccnc2)cc1`: -0.0721.
Next, `N/C(CC(=O)NCCOc1ccccc1)=N\O`: 0.691.
`COc1ccc(CNC(=O)C2CCNCC2)cc1` came in with a z-score of -0.0327.
Next, `Cc1c(C)c2cc(Cl)c(O)c(CN3CCN(C)CC3)c2oc1=O`: 0.4; `CCOC(=O)c1sc2nc3c(SCC(=O)O)cc(C(=O)c4cc(F)ccc4O)cn3c(=O)c2c1C`: -0.189.
Next, `Clc1c(CSc2nc3ccccc3o2)nc2ccccn12`: -0.743.
In turn, `CCOC(=O)COc1cccc2c(=O)n(CC(=O)N3CCCc4ccccc43)ccc12` gave a z-score of -0.205.
Regarding `Nc1nc2n(n1)C(c1c(F)cccc1Cl)CC(c1ccc(F)cc1)N2` (configuration not stated), the z-score was found to be 1.07.
Turning to `CC(C)(C)C(=O)Nc1nnc(Cc2ccccc2)s1`, the z-score is -0.00414.
In turn, `COc1ccc(C2=C(C#N)C(=O)OC2)cc1` had a z-score of -0.0847.
Next, `O=C(CSc1nc(O)c(C2CCCCC2)c(=O)[nH]1)NCC1CCCO1` (configuration not stated): -0.699.
`O=C(Nc1ccccc1N1CCOCC1)C1CCN(S(=O)(=O)c2ccccc2F)CC1` had a z-score of 0.223.
The value for `Cc1ccc(C(=O)C2(C)C3c4cc(Br)ccc4OC(=O)C32C(=O)c2ccco2)cc1` (configuration not stated) was -0.961; that for `COC(=O)c1ccc2c(c1)N(C)C(=O)CS2` was 0.0398.
The value for `COc1ccc(C(O)c2nccn2C)cc1` (configuration not stated) was 0.332; that for `COc1ccc(-c2[nH]ncc2-c2cnc(C)s2)c(O)c1` was 0.401; that for `CCOc1ccc(N(CC(N)=O)S(=O)(=O)c2ccc(F)cc2)cc1` was -0.0718.
Next, `CC(=O)c1ccc(NC(=O)c2ccn[nH]2)cc1`: 0.38; `CCCCNS(=O)(=O)c1ccc(S(=O)(=O)n2cnc3ccccc32)cc1`: -0.101; `Cc1ccc(C(=O)N/C(=C\c2ccc(-c3cccc([N+](=O)[O-])c3)o2)C(=O)NC(C)(C)C)cc1`: -0.596.
Consider `C=CCNC(=O)/C(C#N)=C/c1ccccc1OCc1ccc(C(=O)OC)cc1`, for which the z-score is -0.241.
The value for `CC(C)OC(=O)C1C2C=CC3(CN(Cc4cccs4)C(=O)C13)O2` (configuration not stated) was 0.0334; that for `Cc1ccc([N+](=O)[O-])cc1NC(=O)c1ccc(-c2ccccc2)cc1` was -0.0716.
`COc1ccc(Cn2c(=S)[nH]c3ccsc3c2=O)cc1`: the z-score is active: 3.86.
The molecule `CCOC1CS(=O)(=O)CC1OCC` (configuration not stated) had a z-score of -0.134.
Next, `CSc1nc(-c2ccccc2)[nH]c(=S)c1C(C)=O`: active: 7.43.
`CCCCNC(=S)NNC(=O)c1nn(C)c(C)c1Cl` had a z-score of 0.549.
The value for `Cc1cccc(NC(=O)/C(C#N)=C/c2cn(CC(=O)NCc3ccco3)c3ccccc23)c1C` was -0.176; that for `NC(=O)C1CCN(c2nc(-c3ccc(Br)cc3)cs2)CC1` was -0.112; that for `FC(F)(F)c1ccc(-n2ccnc2)nc1` was -0.0598.
In turn, `Clc1ccc(OCCCN2CCCC2)cc1Cl` came in with a z-score of 0.671.
The value for `CCOC(=O)c1ccccc1NC(=O)Cc1ccccc1OC` was -0.663; that for `Nn1c(Cc2cccc3ccccc23)nnc1SCc1ccccc1` was -0.465; that for `CSc1ccccc1NC(=O)c1ccc(Cl)s1` was -0.184.
The value for `O=C(c1ccc(C#CC2(O)CCCCC2)cc1)N1CCN(C(c2ccccc2)c2ccccc2)CC1` was 0.0718; that for `CCn1c(=O)c([N+](=O)[O-])c(NCCc2ccccc2)c2ccccc21` was -0.178; that for `Cc1cnn(C(=O)c2oc3ccccc3c2C)c1` was -0.239.
Next, `CC(=O)c1cccc(NC(=O)Nc2ccc(C)cc2)c1`: 0.145; `CSC1=NCCN1C(=O)c1c(-c2ccccc2Cl)noc1C`: 0.0159; `CCOC(=O)NC(O)C(=O)c1cccs1` (configuration not stated): -0.035.
The molecule `O=C1CC(C(=O)O)S/C(=N\NC(=O)c2ccc(F)cc2)N1` (configuration not stated) returned a z-score of -0.235.
Take `O=C(Cn1c(=O)oc2ccccc21)NC(=O)NCc1ccco1`: the z-score was 1.13.
Next, `COc1ccc2c(COC(=O)c3n[nH]c4ccccc34)cc(=O)oc2c1`: 3.37e-05.
The value for `COc1cccc(NC(=O)CSc2nnc(CNC(=O)c3ccccc3)n2C)c1` was -0.299; that for `Cc1cc(=O)[nH]c(N=N/C(=N/Nc2ccc(O)cc2)c2ccccc2)n1` was -0.0726.
Regarding `COc1ccc(-c2c(C#N)c(SCc3c(C)noc3C)nc3c2C(=O)CC(C)(C)C3)cc1`, the z-score was -0.229.
The value for `O=C(CSc1ncn(-c2ccccc2)n1)Nc1nccs1` was -0.946.
Next, `C=CCn1c(COc2cccc3ccc(C)nc23)nnc1SCC(=O)OC`: -0.136; `Cc1ncc([N+](=O)[O-])n1CC(=O)NC(C)(C)C`: -0.281.
In turn, `Cc1cc(C)n(-c2nc3nonc3nc2-n2nc(C)cc2C)n1` gave a z-score of 0.084.
Next, `Cc1ccc(NC(=O)CCc2ccc(S(=O)(=O)NC3CCCCC3)cc2)cc1`: 0.245; `C=CCN(CC=C)C(=O)c1ccccc1NC(=O)c1ccccc1C`: 0.278.
The value for `COc1cccc(/C=N/NC(=O)CN2C(=O)NC3NC(=O)NC32)c1` (configuration not stated) was -0.188.

Values taken from PubChem BioAssay AID488969 (Vanderbilt High Throughput Screening Facility, 2010).
